From PubChem BioAssay AID1508642 (National Center for Advancing Translational Sciences (NCATS), 2021) come the findings set out here.

Screen size: about 43,000 compounds; about 200 (0.47%) were called active. About 12% were inconclusive and are not listed. The call rests on the fitted dose curve; in most records, active means well fitted cell-killing curve with a large enough effect; inconclusive means small, poorly fitted or top-dose-only effect, or effect the other way; inactive means flat fitted curve, though single readings scatter. The list shows a part of the results.
On the % scale 0 is the no-effect control and ±100 the full control effect.

The nature of the assay: Cell viability qHTS assay in S16 Pmp22-F2sN cells. Further: nearly all actives have a fitted effect of over 65% in size. The note with it: S16 Pmp22-F2sN Schwann cells (luciferase reporters placed in the Pmp22 gene) viability, CellTiter-Glo, 24 h; series mostly up to 57.5 µM; activity change, negative = cytotoxicity: at the top concentration. The gist of the method: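 CellTiter-Glo counter-screen, qHTS, 1536-well. Cells: S16(c9) Pmp22-F2sN, 500-1,000/well in DMEM + 10% FBS. Cpd 23 nL pin transfer, 24 h, 37C/5% CO2. Read: luminescence, CCD imager.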
Background: qHTS replaces the single test concentration by a dilution series.
On to `O=C(Cn1ccc2cc(S(=O)(=O)N3CCCC3)ccc21)NCc1ccccc1Cl`, for which the “activity change, negative = cytotoxicity” value is inactive: 5.29%.

In the case of `Cc1ccc(-c2nnc(Nc3cccc(Br)c3)c3ccccc23)cc1S(=O)(=O)NCC1CCCO1` (configuration not stated), the “activity change, negative = cytotoxicity” value is inactive: -27.2%.

On to `O=C(c1ccc2c(c1)N(Cc1ccc(Cl)cc1)C(=O)c1ccccc1S2(=O)=O)N1CCc2ccccc21`, for which the “activity change, negative = cytotoxicity” value is inactive: 0.373%.

As for `Cc1ccc(NC(=O)CCCn2nc(C)c3sc4ccccc4c3c2=O)c(Cl)c1`, the “activity change, negative = cytotoxicity” value was inactive: 7.44%.

Turning to `COC(=O)c1ccccc1NC(=O)CSc1nnc2cc(C)c3cc(C)cc(C)c3n12`, the “activity change, negative = cytotoxicity” value is inactive: 1.21%.

In the case of `CCC(C(=O)Nc1cccc(C#N)c1)n1nc(-c2ccccc2)ccc1=O` (configuration not stated), the “activity change, negative = cytotoxicity” value was inactive: -22%.

Turning to `O=C(NCc1ccc(F)cc1)C(=O)NCC(c1ccco1)S(=O)(=O)c1cccs1` (configuration not stated), the “activity change, negative = cytotoxicity” value is inactive: -16%.

With `CCOC(=O)N1CCc2c(sc3c2c(=O)n(-c2ccc(F)cc2)c(=O)n3CC(=O)c2ccccc2)C1`, the “activity change, negative = cytotoxicity” value was inactive: -0.267%.

As for `Cc1cccc(CN2C(=O)c3ccccc3Sc3ccc(C(=O)NCc4cccs4)cc32)c1`, the “activity change, negative = cytotoxicity” value is inactive: 2.22%.

On to `O=C(NCCc1ccccc1)C1COc2ccccc2C1` (configuration not stated), for which the “activity change, negative = cytotoxicity” value was inactive: -15.4%.

Regarding `Cc1cc(=O)n(CC(=O)NC(C)c2ccccc2)c2c1c(C)nn2C` (configuration not stated), the “activity change, negative = cytotoxicity” value is inactive: -27.3%.

Regarding `CCOC(=O)c1c(NC(=O)c2cc3ccccc3c(=O)o2)sc2c1CCC(C(C)(C)C)C2` (configuration not stated), the “activity change, negative = cytotoxicity” value is inactive: -3.02%.

On to `CCc1ccc(NC(=O)c2cc(C)nn2-c2ccccc2)cc1`, for which the “activity change, negative = cytotoxicity” value is inactive: -1.93%.

With `O=C(NCc1ccccc1Cl)C1CCN(c2ncnc3c2nc2n3CCCCC2)CC1`, the “activity change, negative = cytotoxicity” value is inactive: 0.115%.

For `COc1ccc(-c2csc(-c3c(N)c(C(=O)c4ccccc4)n4ccccc34)n2)cc1`, the “activity change, negative = cytotoxicity” value is inactive: 5.48%.

For `Cc1cc(C)n2c(Nc3cccc(C(F)(F)F)c3)c(-c3ccsc3)nc2n1`, the “activity change, negative = cytotoxicity” value was inactive: -9.72%.

For the compound `Cc1nnc(NC(=O)CSCc2cc(=O)c3ccc(C)c(C)c3[nH]2)s1`, the “activity change, negative = cytotoxicity” value is inactive: 1.03%.

Take `CCn1cc2nc(SCc3cccc(F)c3)n(CCc3ccccc3)c(=O)c2n1`: the “activity change, negative = cytotoxicity” value is inactive: -16.2%.

In the case of `CCC(Cc1ccccc1)NC(=O)Cn1ncc2c3ccccc3n(Cc3ccc(F)cc3)c2c1=O` (configuration not stated), the “activity change, negative = cytotoxicity” value was inactive: -16.3%.

Turning to `O=C(O)CCn1ccc2cc(S(=O)(=O)N3CCCCC3)ccc21`, the “activity change, negative = cytotoxicity” value is inactive: -22%.

As to `CCC(=O)N1c2ccccc2CC1C(=O)NCCc1ccc(Cl)cc1` (configuration not stated), the “activity change, negative = cytotoxicity” value is inactive: 13.3%.

Consider `O=C(CN1CCN(c2ccc(Cl)cc2)CC1)Nc1ccc(F)c(F)c1`, for which the “activity change, negative = cytotoxicity” value was inactive: 5.92%.

Consider `O=C(Cn1nnnc1-c1ccccc1F)Nc1ccc(F)c(F)c1`, for which the “activity change, negative = cytotoxicity” value was inactive: 1.57%.

`Cc1cc(C)cc(-n2ccnc2SCC(=O)Nc2ccc(C)c(Cl)c2)c1`: the “activity change, negative = cytotoxicity” value is inactive: 12.9%.

As for `CCOc1ccccc1NC(=O)c1nnn(CC(=O)Nc2ccccc2CC)c1N`, the “activity change, negative = cytotoxicity” value is inactive: 5.95%.

As for `COc1ccc(NC(=O)c2[nH]nc3c2CSc2ccccc2-3)c(OC)c1`, the “activity change, negative = cytotoxicity” value is inactive: 2.25%.

In the case of `CC(C)c1ccc(S(=O)(=O)c2cnc(SCC(=O)Nc3ccc(F)cc3F)nc2N)cc1`, the “activity change, negative = cytotoxicity” value is inactive: 25.3%.
